Our source for the Km values is article PMC4742234, “Screening of Drug Metabolizing Enzymes for the Ginsenoside Compound K In Vitro: An Efficient Anti-Cancer Substance Originating from Panax Ginseng” (PLoS ONE, 2016).

What is called Km is the substrate concentration at which the rate is half of its maximum.

Substrate in the data set: CC(C)=CCC[C@](C)(OC1O[C@H](CO)[C@@H](O)[C@H](O)[C@H]1O)[C@H]1CC[C@]2(C)[C@@H]1[C@H](O)C[C@@H]1[C@@]3(C)CC[C@H](O)C(C)(C)[C@@H]3CC[C@]12C
Nature of the data set: Kinetic analysis of CK metabolism by recombinant CYP3A4. The conditions noted are these: other: recombinant CYP3A4 10 pmol, CK 10–100 μM; pH 7.4; 37.0 °C. The data set is classed as in vitro ADME, human. On the procedure: The method was conducted according to our previous study with some modifications. The CYP isoform-specific probe reactions used were phenacetin O-deethylation (for CYP1A2), coumarin 7-hydroxylation (for CYP2A6), tolbutamide 4-hydroxylation (for CYP2C9), metoprolol α-hydroxylation (for CYP2D6), chlorzoxazone 6-hydroxylation (for CYP2E1),S-Mephenytoin 4-hydroxylation (for CYP2C19), and midazolam 1-hydroxylation (for CYP3A4). The kinetic study of CK was conducted with HLMs. A 0.2 mL incubation mixture that consisted of CK (as a substrate), the HLMs (0.5 mg/mL) or CYP isoforms (10 pmol), and 0.1 M sodium phosphate buffer (pH 7.4) was pre-warmed for 5 min at 37°C. The reaction was initiated by the addition of 1 mg/mL triphosphopyridine nucleotide (NADPH). […]
The kinetic parameters for the metabolism of CK were determined by incubating increasing concentrations of CK (10–100 μM) at 37°C with the HLMs and NADPH under the incubation conditions as described in detail previously. The equation of CK reaction velocity (V) in the HLMs or CYP isoforms is expressed as V = (C0–Ct)/T/Cp, where C0and Ct are the initial and final concentrations of CK in the incubation solution, respectively, T is the incubation time (min), and Cp is the protein concentration (mg/mL or nmol). All values were expressed as the mean±standard deviation (SD). […]

B1: recombinant CYP3A4 (Homo sapiens) (protein)
chain: MALIPDLAMETWLLLAVSLVLLYLYGTHSHGLFKKLGIPGPTPLPFLGNILSYHKGFCMFDMECHKKYGKVWGFYDGQQPVLAITDPDMIKTVLVKECYSVFTNRRPFGPVGFMKSAISIAEDEEWKRLRSLLSPTFTSGKLKEMVPIIAQYGDVLVRNLRREAETGKPVTLKDVFGAYSMDVITSTSFGVNIDSLNNPQDPFVENTKKLLRFDFLDPFFLSITVFPFLIPILEVLNICVFPREVTNFLRKSVKRMKESRLEDTQKHRVDFLQLMIDSQNSKETESHKALSDLELVAQSIIFIFAGYETTSSVLSFIMYELATHPDVQQKLQEEIDAVLPNKAPPTYDTVLQMEYLDMVVNETLRLFPIAMRLERVCKKDVEINGMFIPKGVVVMIPSYALHRDPKYWTEPEKFLPERFSKKNKDNIDPYIYTPFGSGPRNCIGMRFALMNMKLALIRVLQNFSFKPCKETQIPLKLSLGGLLQPEKPVVLKVESRDGTVSGA
notes: purchased Cypex Ltd. (U.K.)
As for B1, the Km was determined as 27.03 ± 5.04 µM.
